# Measured values: US20160311870A1 (SWEDISH ORPHAN BIOVITRUM AB PUBL, published 2016)
# Where a chain is given by its changes, count along the chain named. Numbers in names are those of the source.
# B1: PSI0410 (designed binder)
# chain: AEAKYAKEVLEAWDEIDRLPNLTIEQWLAFINKLDDDPSQSSELLSEAKKLNDSQAPKVEGSLAEAKEAANAELDSYGVSDFYKRLIDKAKTVEGVEALKDAILAALP
# notes: D60E against PSI0242 (linker KVEGS, positions 52-53 remain ND)
# B2: PSI0378 (designed binder)
# chain: B1 chain with N52S, D53E
# notes: N52S, D53E, D60E against PSI0242
# B3: PSI0242 (designed binder)
# chain: B1 chain with E60D
# notes: made in E. coli
# B4: PSI0334 (designed binder)
# chain: B1 chain with N52S, D53E, E60D
# notes: N52S and D53E against PSI0242
# B5: PSI0381 (designed binder)
# chain: B1 chain with N52E, D53S
# notes: N52E, D53S, D60E against PSI0242
# B6: PSI0340 (designed binder)
# chain: B1 chain with D35E, E60D
# Target: T1, human complement component 5 (C5) (human, UniProt P01031 19-673; P01031 678-1676)
# Test: cell-based or functional assay
Binder,"IC 50 (nM), inhibition of hemolysis of antibody sensitized sheep erythrocytes [nM]","Potency (%), inhibition of hemolysis of antibody sensitized sheep erythrocytes [%]"
B1,0.49,107
B2,0.58,83
B3,0.47,100

# Target: T1, human complement component 5 (C5)
# Test: BLI (ForteBio), compound captured on HSA sensor, human C5 in solution
# Procedure: (§1) Human serum albumin was immobilized to Amine Reactive 2nd generation (AR2G) Dip and Read Biosensors (Pall Life sciences (ForteBio) Cat #18-5092) by amine coupling. […] Regeneration conditions for the sensors were 10 mM Glycine, pH 2 (three pulses with 30 seconds and running buffer for 60 seconds). Each spectrogram was reference subtracted against an analogous construct containing an albumin binding domain (SEQ ID NO: 250) but without the C5 binding capacity. The data were analyzed according to Langmuir 1:1 model using ForteBio Analysis 7.1 (Pall Life sciences (ForteBio) kinetics software).
row,Rel. KD (KD relative to PSI0242),Binder
1,1.1,B4
2,1.3,B2
3,1,B3
4,23,B5

# Target: T1, human complement component 5 (C5)
# Test: BLI (ForteBio), compound captured on HSA sensor, human C5 0.79-25 nM in solution, 1:1 model
# Procedure: as §1
row,Kd [nM],Binder
1,1 to 3,B3

# Target: T1, human complement component 5 (C5)
# Test: SPR (Biacore T200), human C5 amine-coupled to CM5 chip, single cycle kinetics, 1:1 model
row,Kd [nM],Binder
1,1.3,B1
2,2.5,B6
3,2.1,B2
4,1.3,B3

# Target: T2, human albumin (human, UniProt P02768 25-609)
# T2 construct: also called recombinant human albumin; human serum albumin
# Test: ELISA on coated recombinant human albumin, amount bound read against a PSI0242 standard curve
row,% of total protein content [%],Binder
1,150,B1
2,85,B2
3,103,B3
